This is one part of the list. Repeats are few or missing, and single values can be far off.
Columns and labels:
Assay in all cases: cell count relative to DMSO control; melanoma cells; higher = more viable cells
Conditions in all cases: library dose: standard library concentration; 72 h
[1] = test system: SkMel28
[2] = test system: SkMel2
[3] = test system: SkMel30
[4] = test system: SkMel5
[5] = test system: UACC257
[6] = test system: UACC62
[7] = test system: WM115
[8] = test system: WM1716
[9] = test system: WM1745
[10] = test system: WM3526
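Note: cells treated in 1,536-well plates, then fixed and DAPI-stained, with nuclei counted from automated high-throughput microscope images.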

Structure (SMILES)	cell count [1] [%]	cell count [2] [%]	cell count [3] [%]	cell count [4] [%]	cell count [5] [%]	cell count [6] [%]	cell count [7] [%]	cell count [8] [%]	cell count [9] [%]	cell count [10] [%]
Cn1c(=O)n(-c2ccc(C(C)(C)C#N)cc2)c2c3cc(-c4cnc5ccccc5c4)ccc3ncc21 + Cn1cncc1[C@@](N)(c1ccc(Cl)cc1)c1ccc2c(c1)c(-c1cccc(Cl)c1)cc(=O)n2C [tipifarnib] (first compound 0.02 µM, partner dose 0.05 µM)	37.2	50.1	67.5	56.4	88.6	62.5	57	51.6	72.6	55.9
CC(C)C[C@H](NC(=O)[C@H](Cc1ccccc1)NC(=O)c1cnccn1)B(O)O [Bortezomib] + NC(=O)Nc1cc(-c2cccc(F)c2)sc1C(=O)N[C@H]1CCCNC1 [AZD7762] (first compound 0.005 µM, partner dose 0.1 µM)	33.8	48.3	44.9	24.5	72.3	67.7	21.4	26.2	21.8	25.8
Cn1c(=O)n(-c2ccc(C(C)(C)C#N)cc2)c2c3cc(-c4cnc5ccccc5c4)ccc3ncc21 + CC(=O)c1c(C)c2cnc(Nc3ccc(N4CCNCC4)cn3)nc2n(C2CCCC2)c1=O [palbociclib] (first compound 0.02 µM, partner dose 0.2 µM)	41.2	57	77.8	61.7	96.6	61.9	62.1	46.4	64.7	53.8
COc1ccc(C2=N[C@@H](c3ccc(Cl)cc3)[C@@H](c3ccc(Cl)cc3)N2C(=O)N2CCNC(=O)C2)c(OC(C)C)c1 [Nutlin-3] + CC(C)(C)c1cnc(CSc2cnc(NC(=O)C3CCNCC3)s2)o1 [SNS-032] (first compound 0.5 µM, partner dose 0.05 µM)	33.3	65.8	70.3	45	75.3	47.2	58.4	53.8	72.3	86.7
COc1ccc(C2=N[C@@H](c3ccc(Cl)cc3)[C@@H](c3ccc(Cl)cc3)N2C(=O)N2CCNC(=O)C2)c(OC(C)C)c1 [Nutlin-3] + O=C(CCCCCCC(=O)Nc1ccccc1)NO [vorinostat] (first compound 0.5 µM, partner dose 0.4 µM)	42.4	60.5	91.4	55.8	76.2	74.7	49.5	72.8	65.6	83.8
Cc1cn(-c2cc(NC(=O)c3ccc(C)c(Nc4nccc(-c5cccnc5)n4)c3)cc(C(F)(F)F)c2)cn1 [nilotinib] + C#Cc1cccc(Nc2ncnc3cc(OCCOC)c(OCCOC)cc23)c1 [erlotinib] (first compound 1 µM, partner dose 4 µM)	65.4	88.3	93.6	54.8	109	58.7	71.9	99	63.5	74.8
Cc1cn(-c2cc(NC(=O)c3ccc(C)c(Nc4nccc(-c5cccnc5)n4)c3)cc(C(F)(F)F)c2)cn1 [nilotinib] + NC(=O)c1ccc(N(C(N)=O)c2c(F)cccc2F)nc1-c1ccc(F)cc1F [VX702] (first compound 1 µM, partner dose 2 µM)	107	82.6	109	80.6	101	93.5	114	113	90.9	92.6
Cc1cn(-c2cc(NC(=O)c3ccc(C)c(Nc4nccc(-c5cccnc5)n4)c3)cc(C(F)(F)F)c2)cn1 [nilotinib] + C[C@@H](Oc1cc(-c2cnn(C3CCNCC3)c2)cnc1N)c1c(Cl)ccc(F)c1Cl [Crizotinib] (first compound 1 µM, partner dose 1 µM)	86.8	101	88.5	68.4	108	84.3	75.1	92.2	48.7	103
CC(C)C[C@H](NC(=O)[C@H](Cc1ccccc1)NC(=O)c1cnccn1)B(O)O [Bortezomib] + O=C(O)c1ccc(-c2c[nH]c3ncc(-c4ccccc4)cc23)cc1C1CCCC1 [GSK650394] (first compound 0.005 µM, partner dose 0.8 µM)	31.6	36.1	35	37	68	76	23.6	37.8	33.7	30
CC(C)C[C@H](NC(=O)[C@H](Cc1ccccc1)NC(=O)c1cnccn1)B(O)O [Bortezomib] + CCCS(=O)(=O)Nc1ccc(F)c(C(=O)c2c[nH]c3ncc(Cl)cc23)c1F [PLX4720] (first compound 0.005 µM, partner dose 0.4 µM)	34.2	34.6	30.8	38.3	73.2	59.7	38.5	18.2	13.5	27.7
COc1ccc(C2=N[C@@H](c3ccc(Cl)cc3)[C@@H](c3ccc(Cl)cc3)N2C(=O)N2CCNC(=O)C2)c(OC(C)C)c1 [Nutlin-3] + CNC(=O)c1cc(Oc2ccc(NC(=O)Nc3ccc(Cl)c(C(F)(F)F)c3)cc2)ccn1 [sorafenib] (first compound 0.5 µM, partner dose 2 µM)	91.1	96.7	123	92.4	88.1	56.4	116	84.6	97.4	106
COc1ccc(C2=N[C@@H](c3ccc(Cl)cc3)[C@@H](c3ccc(Cl)cc3)N2C(=O)N2CCNC(=O)C2)c(OC(C)C)c1 [Nutlin-3] + COCC[n+]1c2c(n(Cc3cnccn3)c1C)C(=O)c1ccccc1C2=O [YM155] (first compound 0.5 µM, partner dose 0.002 µM)	30.5	34.7	88.6	38.6	28.7	34.9	64.8	68.1	81.8	41
Cc1cc(Nc2cc(N3CCN(C)CC3)nc(/C=C/c3ccccc3)n2)n[nH]1 + Cn1cncc1[C@@](N)(c1ccc(Cl)cc1)c1ccc2c(c1)c(-c1cccc(Cl)c1)cc(=O)n2C [tipifarnib] (first compound 0.2 µM, partner dose 0.05 µM)	44.7	76.1	80.6	74.9	78.9	58.5	41.6	60.7	82	63.9
Cc1cn(-c2cc(NC(=O)c3ccc(C)c(Nc4nccc(-c5cccnc5)n4)c3)cc(C(F)(F)F)c2)cn1 [nilotinib] + Cn1c(=O)n(-c2ccc(C(C)(C)C#N)cc2)c2c3cc(-c4cnc5ccccc5c4)ccc3ncc21 [NVP-BEZ235] (first compound 1 µM, partner dose 0.02 µM)	44.9	67.4	91.3	60.3	107	59.5	64.3	77.9	83.3	66
COc1ccc(C2=N[C@@H](c3ccc(Cl)cc3)[C@@H](c3ccc(Cl)cc3)N2C(=O)N2CCNC(=O)C2)c(OC(C)C)c1 [Nutlin-3] + CC(=O)c1c(C)c2cnc(Nc3ccc(N4CCNCC4)cn3)nc2n(C2CCCC2)c1=O [palbociclib] (first compound 0.5 µM, partner dose 0.2 µM)	38.1	53.3	61.3	44.5	67.6	49	52.3	33.5	76.1	46.8
Cn1c(=O)n(-c2ccc(C(C)(C)C#N)cc2)c2c3cc(-c4cnc5ccccc5c4)ccc3ncc21 + OCCn1cc(-c2cnc3nnn(Cc4ccc5ncccc5c4)c3n2)cn1 [PF04217903] (first compound 0.02 µM, partner dose 5 µM)	49.6	77.8	82.1	65.3	114	83.1	77.6	104	96.1	98.7
Cc1cn(-c2cc(NC(=O)c3ccc(C)c(Nc4nccc(-c5cccnc5)n4)c3)cc(C(F)(F)F)c2)cn1 [nilotinib] + O=C(O)c1ccc2c(c1)nc(Nc1cccc(Cl)c1)c1ccncc12 [CX4945] (first compound 1 µM, partner dose 2 µM)	71.7	96.8	72.3	82.9	108	74.2	78.8	98.6	61.2	78.5
Cn1c(=O)n(-c2ccc(C(C)(C)C#N)cc2)c2c3cc(-c4cnc5ccccc5c4)ccc3ncc21 + COCC[n+]1c2c(n(Cc3cnccn3)c1C)C(=O)c1ccccc1C2=O [YM155] (first compound 0.02 µM, partner dose 0.002 µM)	35.5	37.1	70.6	36.4	25.2	63.1	66.6	70.2	70.7	34.4
Cn1c(=O)n(-c2ccc(C(C)(C)C#N)cc2)c2c3cc(-c4cnc5ccccc5c4)ccc3ncc21 + Nc1ncn([C@H]2C[C@H](O)[C@@H](CO)O2)c(=O)n1 [decitabine] (first compound 0.02 µM, partner dose 0.5 µM)	39	62.9	79.8	58.6	96.6	58.3	61.3	61	70.2	68.8
Cc1cn(-c2cc(NC(=O)c3ccc(C)c(Nc4nccc(-c5cccnc5)n4)c3)cc(C(F)(F)F)c2)cn1 [nilotinib] + COCC[n+]1c2c(n(Cc3cnccn3)c1C)C(=O)c1ccccc1C2=O [YM155] (first compound 1 µM, partner dose 0.002 µM)	57.5	49.3	88.6	44.3	20	61.1	66	70.7	108	56.6

— the supplement of paper PMC4604168 (melanoma cell lines)
